Results taken from the supplement of paper PMC10126150.
Sequences with one replicate were seen in a single cluster, so their values are uncertain.

System: ATP
Test: switch fluorescence ratio, 500 uM ATP over buffer (Cy3 cluster intensity, sum of 5 cycles each) (fold (ratio)); higher = stronger signal-on switching upon ATP binding; sequences stand for … in TCGTCGGCAGCGTCAGATGTGTATAAGAGACAGTTTTTTTTTTTTTTTTTTTTTTTTT…TC
Conditions: aptamer strand: ATP DNA aptamer (quencher-CACCTGGGGGAGTATTGCGGAGGAAGG + anchor), 100 nM annealed; ATP concentration: 500 uM; one replicate
How it was run: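 Clusters with intensities outside 100-1000 RFU were excluded. The remaining Cy3-labelled switching-strand clusters on a modified Illumina MiSeq flow-cell had been annealed to 100 nM quencher-labelled ATP aptamer and imaged in selection buffer, then after 15 min with 500 uM ATP at 22 °C, for five cycles separated by NaOH stripping and re-annealing. The fluorescence ratio, averaged per switch-domain sequence, is each cluster's summed target-cycle Cy3 intensity over its summed buffer-cycle Cy3 intensity.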
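Note: ATP exposure 15 min at 22 °C before imaging.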

GGACATATAT
switch fluorescence ratio: 0.988

GGATTTAGCG
switch fluorescence ratio: 0.971

TTCGTCGGCG
switch fluorescence ratio: 0.978

GCATCGTAGG
switch fluorescence ratio: 0.989

CATATCTTAG
switch fluorescence ratio: 1.02

TATCTCGTCG
switch fluorescence ratio: 1.02

CAAAATATAG
switch fluorescence ratio: 0.973

GGCTATAGAC
switch fluorescence ratio: 1.05

CCGGTCCGCT
switch fluorescence ratio: 2.44

CGGCTACCTG
switch fluorescence ratio: 0.978

GTCTAAACTC
switch fluorescence ratio: 1.02

TTTGGATAA
switch fluorescence ratio: 0.938

TGCCTAATGA
switch fluorescence ratio: 1.05

GGGAGTCGAT
switch fluorescence ratio: 0.996

CTTGTTTTTT
switch fluorescence ratio: 0.987

ATGAAGGCAA
switch fluorescence ratio: 1.57

GAGGCTGCTG
switch fluorescence ratio: 1.11

TTCTCGTAAA
switch fluorescence ratio: 1.24

TGGGCCTTCT
switch fluorescence ratio: 1.02

ATTGTGATCC
switch fluorescence ratio: 1.01

TTTGAGGGCC
switch fluorescence ratio: 0.985

AGCTAACATT
switch fluorescence ratio: 1.02

TTGTTTACGC
switch fluorescence ratio: 0.957

TGTGGCGACT
switch fluorescence ratio: 0.983

GGATTCAAGA
switch fluorescence ratio: 0.93

CACCGCCAG
switch fluorescence ratio: 1.33

CACAGAAAAA
switch fluorescence ratio: 0.991

AAGGTCAACA
switch fluorescence ratio: 1.01

GATGACGCAT
switch fluorescence ratio: 1.88

AGGAAGCGC
switch fluorescence ratio: 1.08

GGGACTTCGC
switch fluorescence ratio: 1.12

GACATTTAG
switch fluorescence ratio: 0.991

TTAGCCAGGA
switch fluorescence ratio: 0.98

GTGCAAAGCG
switch fluorescence ratio: 0.993

ACACAAGAGG
switch fluorescence ratio: 1.02

AATTGCATTG
switch fluorescence ratio: 1.03

TTCGATTAGG
switch fluorescence ratio: 0.997

ACATGAATCG
switch fluorescence ratio: 0.986

TATTAAGAGA
switch fluorescence ratio: 0.974

CGACCTGCTC
switch fluorescence ratio: 1.41

TTCCAGAGGA
switch fluorescence ratio: 0.987

TTCTCCCCGT
switch fluorescence ratio: 1.14

AGATAAAATC
switch fluorescence ratio: 0.984

TAAGCTATGT
switch fluorescence ratio: 0.961

CGCCATGGCG
switch fluorescence ratio: 1

TCGTTGACTC
switch fluorescence ratio: 1.04

GTGGCACAGG
switch fluorescence ratio: 1.05

ACGCGTCCAT
switch fluorescence ratio: 1.04

AACGCCAAAG
switch fluorescence ratio: 1.04

AGGGAATTTA
switch fluorescence ratio: 1.03

TAATAACCGT
switch fluorescence ratio: 1.01

GCGGCATGTG
switch fluorescence ratio: 1.03

TTATTCAGAA
switch fluorescence ratio: 0.946

CCAGCTTTCA
switch fluorescence ratio: 1.01

TGCCAGGCTT
switch fluorescence ratio: 0.979

AAAGAGCTAC
switch fluorescence ratio: 1.22

AAACTTTTCC
switch fluorescence ratio: 1.85

TAGGCTAAAG
switch fluorescence ratio: 1.01

GTGGTTATAA
switch fluorescence ratio: 1.03

ATCTGCCGAA
switch fluorescence ratio: 1.03

ATTATGGCTT
switch fluorescence ratio: 1

TCGGGGCATG
switch fluorescence ratio: 1.04

ACAAGGATGC
switch fluorescence ratio: 1.03

AAAGAGGTT
switch fluorescence ratio: 1.03

TATGCGATTA
switch fluorescence ratio: 1.01

CGGCGGCGTG
switch fluorescence ratio: 1.04

AGGAGAAGCA
switch fluorescence ratio: 0.958

ATCCACCCGA
switch fluorescence ratio: 1.08

TTGCGATAGC
switch fluorescence ratio: 1.12

GACGATTACA
switch fluorescence ratio: 1.12

GACTGGGCTA
switch fluorescence ratio: 1.05

CTTTGACGTA
switch fluorescence ratio: 1

GAAAGCTATG
switch fluorescence ratio: 1.02

ATTGTGAGGC
switch fluorescence ratio: 1.42

GGCTCTATAA
switch fluorescence ratio: 0.982

ATTCAGTGCG
switch fluorescence ratio: 1.01

CATGATAAGC
switch fluorescence ratio: 1.01

AGAGGCCAAA
switch fluorescence ratio: 0.981

GATCACCCGC
switch fluorescence ratio: 1.09

GAATGCTTTA
switch fluorescence ratio: 1

TGTGCATAAT
switch fluorescence ratio: 1

CCGGGCAGAT
switch fluorescence ratio: 1.84

CACACCGTGA
switch fluorescence ratio: 1.02

TACTCGTAT
switch fluorescence ratio: 0.981

ACACGTGCGG
switch fluorescence ratio: 0.996

CAGCACCCGC
switch fluorescence ratio: 1

ACTTTTGGAA
switch fluorescence ratio: 1.02

AACGATGGGC
switch fluorescence ratio: 1.06

AGCTCATTA
switch fluorescence ratio: 1.01

GTTTCCCGGG
switch fluorescence ratio: 0.996

GGAGCCTCTT
switch fluorescence ratio: 1.02

AACCCCGGGA
switch fluorescence ratio: 1.08

TGCACCAAAA
switch fluorescence ratio: 0.99

AGTCGCGTGT
switch fluorescence ratio: 0.978

GGTACGCGTA
switch fluorescence ratio: 0.921

AAAAGTGAAT
switch fluorescence ratio: 0.962

CGGGCTAGCA
switch fluorescence ratio: 0.965

TCTTGTATGT
switch fluorescence ratio: 0.963

TTGAGATCGT
switch fluorescence ratio: 0.996

GATTACTTCG
switch fluorescence ratio: 0.979
